# Experimental data: the supplement of paper PMC11417369
# This is one part of the list.
# Test system: PfHDP1 homeodomain (GST-tagged)
# Assay: gcPBM binding intensity (ln(normalized median fluorescence intensity)); higher = stronger DNA binding
# How it was run: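 The highest Masliner-normalised natural-log median intensity across replicate spots of either probe orientation is reported as binding intensity. GST-tagged P. falciparum DNA-binding domains expressed in E. coli were applied for 1 h to an Agilent 4 × 180k array of primer-extended double-stranded 36-bp intergenic genomic probes plus negative controls, and bound protein was detected with Alexa488 anti-GST antibody and scanned at 488 nm.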
row,Sequence,gcPBM binding intensity (ln)
1,AATATATAGGTATTTACACACAATGTGAGATCTATA [CACACA_site3407],6.24
2,ATTTATGAAAAGTAAAGTACACACAGGAAAAAAAAA [XGTACX_site3564],6.62
3,GTCAACTTGTGATAAGTGCATATATATAATAAAATG,8.35
4,CGAAATAAATCTTATGCACACAAATAATTAATTAAA [CACACA_site8491],10.5
5,AAAAAAATATAATATTTGAATAAATATAATAATATG [XGTACX_negctrl_site477],6.19
6,ATTTAAATAATATGTACACACATTTAAAAAATTATA [CACACA_site2816],6.49
7,CCAATGAGGATATATACACACATACATTAAAAAAAT [CACACA_site5090],6.73
8,ATATATATGTATGTATGTACTTATTTATTTATTTAT [XGTACX_site7740],6.21
9,TAAGAAAAAGGCACACGTACATAATTCAAAATAAAT [XGTACX_site982],6.57
10,TTTTTTTTCACACATTGTACTTTTTTATAAAATATA [XGTACX_site4351],6.98
11,TATACATATTTACAAGTGCATAATATTTTACAAAAA,8.59
12,CACTCTTAAAATAAGGTGCACTATATAACGTGATTA [GTGCAC_site9422],9.47
13,ATAAAATAAATAAATATAAATATATATATATATATA [TGCATGCA_negctrl_site358],9.14
14,TAATTATAATAAAAAGGTACAGAAAAGTTATACTCA [XGTACX_site6111],6.26
15,AATTATCAAAGTCTATACATACATACATACATACAT [GTGCAC_negctrl_site243],6.96
16,GTTATAACTCAAATATGTACATATTATAAAACATAT [XGTACX_site6693],6.82
17,AAAAAAAAAAAAAAAGGTACACAAATACGTCCTGCA [XGTACX_site3354],6.49
18,TTATAGAACTATATTGCACACATAATATATATATAT [CACACA_site9042],10.1
19,TATAAAAATAAGCACACACACAAATATATATTTATT [CACACA_site922],6.77

row,Sequence,gcPBM binding intensity (ln)
1,TTACTACTATATTATACACACATATATTTATTTATA [CACACA_site7274],7.01
2,CCGTAGTTTTAAAATAGTACTTTTATGGTTAATAAA [XGTACX_site3162],6.29
3,TTTTTTATTTTTTTATTGTTTTATTGTTTCATTGTT [XGTACX_negctrl_site128],6.65
4,TATAAATAATAAAGATGTACTTTTTATGATTCCTAC [XGTACX_site7003],6.36
5,TATAAAAAGCAAAACAAAAAAACAAATTGAAAAATT [TGCATGCA_negctrl_site158],6.38
6,AAAAGAAAAGAGAGGAGTACAAAATATAATTATCTA [XGTACX_site5172],6.87
7,CATATTGGTATGCTCATGCACTTTTATTTTGTTATT [GTGCAC_site9553],9.04
8,TGTATATATTAATGTACACACATGCGTATGTTCGTT [CACACA_site3583],6.65
9,AAAAAAAAAAAAAGAACACACACAGTGCACATTCGG [CACACA_site8163],10.3
10,AATTAGATACTAACAAGTACATATATATATATATAT [XGTACX_site2252],9.18
11,TTGTAATTATTAAACACACACAAAATATCTAGAATA [CACACA_site7231],6.99
12,ATTTAGATTAACACTTGTACATAATACATACAAATA [XGTACX_site4147],6.43
13,ATTTTTTTTTGTGTATATAAATAAATAAATATATAT [GTGCAC_negctrl_site603],6.47
14,TTTCCCTAATGAAAGTGTACCTGTGAGAAAAAAAAG [XGTACX_site194],6.58
15,AAAAAAAAAAAAAGCACACACACATATGTGTATATA [CACACA_site8225],6.86
16,CCCTGCCTCTCTTTGGTGCGTTGTAACCCTCGAGGA,6.77
17,TAAATTGTATATGAGACTATACTATAAAAGTATGAA [XGTACX_negctrl_site22],6.19
18,TGTCTGTGCGGGTGTACACATTTCATATTACCCAAT [CACACA_site5593],7.44
19,TAATTTATAAAAAATTGTACATTAAACATATATATA [XGTACX_site5164],6.57

row,Sequence,gcPBM binding intensity (ln)
1,TGCTCCTATTATATAGTGCATTTATTTTAATAAACG,8.61
2,AACCTTACACAAGGGGTGCAATATTATTTCGATAAA [GTGCAC_site9600],9.2
3,TCTTTTCGTTCATGCTGTACTTAATTGCTCTAATTT [XGTACX_site4816],7.18
4,CAATTTATTTTTATTACACACTATCCAAATAATTTC [CACACA_site2956],6.47
5,TATATAATAATTTAGAGTACTGATAAAATATTCCAT [XGTACX_site6200],6.23
6,AACATACGACAATACGCACACATATATGTACATATT [CACACA_site1917],7.2
7,TTAAACAATTTAGACATACACACAAAAATAATATTA [CACACA_site385],6.9
8,AGCATACATATTTTTTGTACATATATATATATATAT [XGTACX_site8536],9.18
9,CCATAAAATCATAAGCGTACTTAATATATTTTACTT [XGTACX_site559],6.42
10,TAATTTTTCCTTTTTGCACACATTAACGTCGACGAA [CACACA_site4025],10.8
11,TACATATTTATATACACACACACCGTCCGTGTTAAA [CACACA_site7413],6.93
12,CTAAAAATCTTTTGTTGTACTTTTAGATAATCAGGA [XGTACX_site3968],6.05
13,AAAGGGATGTTCATTCTTTTTTTTTTTTTTGTATAT [CACACA_negctrl_site511],5.96
14,AAGTAAAAAAATAGCACACACACAAAAACACAGACA [CACACA_site4839],7.59
15,TTTCCCTACCAAAAATGTACTTATAAGCGTTTTTAT [XGTACX_site739],6.5
16,AAAAAAAAAAAACACACACACACACTAATACATACA [CACACA_site8135],6.74
17,TTTTTAAATTATTGCACACAAAAATGAAAGGAAAAA [CACACA_site1455],9.76
18,ATTGGGTACAAATACACACACATATAAATATTAATA [CACACA_site7173],6.68
19,TATTATTTTATGAATACACACATATACGAAAATATT [CACACA_site964],6.47
